167 variants from the RNAGym collection of RNA variant scans (doi:10.7554/elife.90254) can be followed below.

First the molecules themselves.
B1: LINE1-mini (parent)
chain: GGCAGAGCUCAACACAGCGUGGCAAAGUGGCUGUGGCUAGACUGCC

Read counts are not given, so values of variants with three or more changes are uncertain.

This series covers variants of B1. Description: self-cleavage, relative activity (ratio to wild type); higher = more cleavage; in vitro, sequencing; the parent is a self-cleaving ribozyme.
For G5U C15U C45G, the self-cleavage was 0.07. Turning to A16C G21U G33U C37G, the self-cleavage was 0.01. Consider G17C A41C U43A, for which the self-cleavage was determined as 0. The same measure for A14G U20C C23G: 0.34.

With C8G U20C U34A G44C, the self-cleavage is 0.02. With C8G A12U A26G C46U, the self-cleavage was 0.03.

For the variant G5U U9C C18A, the self-cleavage worked out at 0.05. The value for A6C C10A A25C A39G was 0.01; that for G1U A11G A24C was 0.02; that for G2C G5U C10U was 0.05. Consider A6C A39C C45A, for which the self-cleavage came to 0.07. The value for G17U C31U C45U was 0.17. For the variant A4C C13A G22C, the self-cleavage is 0.02.

Consider G5U C10A G27U C31G C46G, for which the self-cleavage worked out at 0.01. As for U9A A11C A24C G27U, the self-cleavage is 0.03.

With A11G A16C G30A G35U G36A, the self-cleavage is 0.02.

With C23G G29C G36U G44A, the self-cleavage came to 0.01. As to G27C U28G U32A C37U, the self-cleavage amounted to 0.03.

As for A4G C18G G36A, the self-cleavage was found to be 0.02. Consider A16C A25G C37A, for which the self-cleavage is 0.01. Turning to C3U A4C G29U C46A, the self-cleavage came to 0.09. In the case of G1U C8A A11U G33A A39U, the self-cleavage worked out at 0.03.

As for A11U G19A G21A G22A C31A, the self-cleavage was 0.02. The value for G2A G29C C37U A39G was 0.03; that for C13A A26U C31A C46U was 0.62; that for G1U A11C A39G A41G was 0.01.

Consider C15U G17U G35U, for which the self-cleavage is 0.09. The same measure for U20A G22U U32A: 0.1; for G7A A14G C15A: 0.06. The same measure for A6C C10A C18G: 0.04. For the variant G1C A6C A25G U34A, the self-cleavage was found to be 0.01. As for G2U C15A G29C, the self-cleavage worked out at 0.07. The value for G1A G30U U43C C46U was 0.06; that for A14U G19U G36U A39U was 0.22.

As for G30C U32G C37A A39G, the self-cleavage was 0.03.

Turning to U9C G17C G30C, the self-cleavage was 0.02.

As to G5A C13A A24G G29U, the self-cleavage was 0. The same measure for A12C C37G C45G: 0.01. The same measure for A12C C15A G21U G22U G35U: 0.04; for A16C A25U C31U: 0.04; for C3A C8G A11C G21A G29A C46G: 0.02. The value for A6U A16C G33U U34C was 0.11; that for U28A G30A G36A was 0.24; that for G22U U28C G30C was 0.86. Consider A6U C8G G17C G22A A24G A26G G33A C46A, for which the self-cleavage worked out at 0.02. Consider U9A A14U C37G, for which the self-cleavage worked out at 0.14.

Regarding A16G A25U G29A, the self-cleavage was determined as 0.07. Consider U28G G33U A39U C46A, for which the self-cleavage is 0.01. With A26G A41C G44U, the self-cleavage amounted to 0.02.

Consider C3A U9G G30C, for which the self-cleavage is 0.21. Turning to G22U A25G A26G G30A, the self-cleavage was determined as 0.14.

In the case of C15U G17U G44A C45U, the self-cleavage stood at 0.02. The value for A11G G19C G21C G22C G33C was 0.01; that for C18U G29U C46G was 0.65; that for A4U A14U G19U was 0.12. The same measure for G1A A11C G35C G40C C45U: 0.01; for C10U C15G G27C: 0.04. Consider G5C G21A G40U A41U, for which the self-cleavage was determined as 0.15.

With G2U G5U G19A G27U, the self-cleavage was 0.03.

In the case of G1U G7U A14U C45U, the self-cleavage stood at 0.11. In the case of G1A C10A C15U G36C G44U, the self-cleavage was 0.01. The same measure for G1U G19C C42A: 0.02; for A4C C10G U38A: 0.

For the variant U9C C13U G27C G44C, the self-cleavage turned out to be 0.01. The value for G19U C23G C37A was 0.02; that for A11U C18U U20C G22A A25U G35C G36A was 0.01; that for A4G C31U C46U was 0.03. The value for G19U A25C G27C C37G was 0.03; that for C18G G22A G35A was 0.04. The value for G7U C10A C13G U32A was 0.02; that for C15U G27A U32A C37A G44C was 0.07. In the case of A16U U32G C37A G40C, the self-cleavage was found to be 0.02. The value for C3G C15G U43C was 0.05; that for C3U G19C G40C was 0.02. The value for G27C G29C U43A was 0.06; that for G19A G35C C42G was 0.04. For C10U A11G G17A A24U U43G G44A, the self-cleavage is 0. The same measure for C10U C15U G17U C23U A26U C45U: 0.05; for G7C A26G G30U G40A G44A: 0.03; for G17U C18A G30A: 0.33. The value for C8A C10A C13U A25C A39U U43C was 0.03. The value for G2C A16U G17U A24C U32C was 0.08; that for G1U G7U C15U A16C G33U G35U G40U C42U was 0.09; that for C13A C18G C23A G35C C37U was 0.15. On to C23G U28G U38A, for which the self-cleavage worked out at 0.09.

As for C3U G30C A41C, the self-cleavage stood at 0.13. The value for A12U U28A G30A was 0.32; that for U9G C10A G30U was 0.01; that for A11U U28A C45U was 0.1.

Take A11G G27C C42A: the self-cleavage turned out to be 0.06. For the variant C18U C31G C45A, the self-cleavage turned out to be 0.11. The same measure for G5U U20C G29A: 0.03; for A4U G21U A26U A39C G40A: 0.08; for G5C C13U G27C C45G C46U: 0.04. The value for A24G C31U G36A was 0.06. For the variant G2C C10A G29U, the self-cleavage amounted to 0. The same measure for C3A A12U A14C U20C C42G: 0.02; for G2C A4C A11U C15U C37U A39U: 0.01; for G1U G2A C3U: 0.26. The same measure for G2U U20A U32C G36U: 0.02. The same measure for C10A G36C C37U: 0; for A25U G27U U43C: 0.1; for A6C G27U A41U: 0.15. On to G33A G40U U43A, for which the self-cleavage came out at 0.14. A6U A11G G29C U43C: the self-cleavage is 0.01. The value for G5C A14C U20C U43C was 0.01. The same measure for A4U G7C A14C A41U: 0.07; for G2C A6G A26U G35A C37A: 0.03; for C8A A41C G44U C46U: 0.18.

On to C37U C42G C45G, for which the self-cleavage is 0. Consider A6U G7C C37A C46A, for which the self-cleavage came out at 0.08. Turning to G2A A11U G30A C31U, the self-cleavage is 0.02. The same measure for A6C G7A C10G A26C A39G: 0; for C3A U32G U43A: 0.11. As for A4C C8A G21A A26U G36C, the self-cleavage amounted to 1.

Consider G1C A12C G27U G36U A39G, for which the self-cleavage was 0.01. For C13U G33U A39C, the self-cleavage amounted to 0.08.

Consider C13G A24G C31U C46A, for which the self-cleavage came out at 0.05. The value for A6G A16C A26C G27C U43A C46U was 0.07; that for G1U U9G G22C U34C was 0.01; that for U9A C10A G27U C42U was 0.02. Consider G30U G36A C46A, for which the self-cleavage came to 0.37. As for C8U C13A U32G G40C, the self-cleavage came to 0.07. For the variant C18G C23G A41C, the self-cleavage is 0.02. The value for G7A G17A C23A U34G C46A was 0.01; that for C13U U20A C46U was 0.17; that for U9A C10A A12C G35U was 0.02.

Turning to G7C G19U G36C, the self-cleavage came to 0.04. Consider C15A C37U C42G, for which the self-cleavage turned out to be 0.03. The same measure for C8U U9G C23A A24U A41G: 0.21.

For G19A C31G G44U, the self-cleavage came out at 0.02. The value for A4U G19U G21A was 0.09; that for G5U U28A G30A was 0.07; that for A26C U28C C37U was 0.

Regarding A26U G29U C31A, the self-cleavage amounted to 0.05. The value for G17U G21U G29C was 2.97; that for C3A A11U C18G G21C C23A A41U was 0.02; that for G2C G29C C31G A39U G40A was 0.01. As for G1U G19C A24C U38C, the self-cleavage stood at 0.06. The same measure for G30U G33A C46A: 0.13; for A4U A6U G7C C18A G44U: 0.04. With U9G G27C U38G A39U, the self-cleavage came to 0.02. The same measure for G1A C10G U20G: 0.1; for U20C G22A C23A A24G A39C: 0.02; for C13G G40U C46G: 0.06. In the case of G5C A25C G33A C37A U38A A39U, the self-cleavage was found to be 0.03. The same measure for A11G G21A C23U C37G: 0.02; for G1U G2C A25G G36U C37G C46A: 0.

In the case of U9G A25C C31U, the self-cleavage amounted to 0.01.

With G7U U9C G19C, the self-cleavage was determined as 0.03.

As to A12C U20A G30A C31G, the self-cleavage is 0. The same measure for G1U G5C U34G: 0.09; for A6U U9C A11G C18U A39G: 0.03.

Regarding A6U C18U G21U G44C C46A, the self-cleavage was 0.03. As to C3A C18U U20A U34A, the self-cleavage worked out at 0.07. The same measure for G1A G19A G22C U43A: 0.02; for G1C C3A A26U: 0.13; for G1A G30C U43A G44U: 0.02. In the case of G7U C15U A16G G27U G36A G40A, the self-cleavage was 0.08. Consider G1A A4C G21C, for which the self-cleavage stood at 0.02. G30C U34C A39U: the self-cleavage came out at 0.29.

C18U G19A G30A: the self-cleavage was determined as 1.18. Turning to C8A C18G C31G, the self-cleavage amounted to 0.09. Regarding G7A C8A G33A G36U C46U, the self-cleavage was determined as 0.11. The same measure for C3U G7A A11U A14U A16G A26C G29U: 0.01; for C18A U32G C42U C45U: 0.01; for C15G G19U A25C U38G: 0.
